For 95 compounds, inhibition results are on record in PubChem BioAssay AID485344 (National Center for Advancing Translational Sciences (NCATS), 2010).

Screen size: about 340,000 compounds; about 6,900 (2%) were called active. Rule as the data show it: active = inhibition above about 30%; inactive = below that, where a call was filed. This is a selection; strong and weak results do not stand in their true shares. Where no call is shown, the source filed none. More than one record can exist for a structure, and the calls need not agree.

The target in this assay is D(2) dopamine receptor (Homo sapiens) (UniProt P14416). Description: HTS Assay for Allosteric Antagonists of the Human D2 Dopamine Receptor: Primary Screen for Antagonists. Also: 0% is about no effect. The settings on record: HEK293 TREx D2 cells, calcium flux, dopamine EC80; at 10 µM; stronger effect = higher value. The text has this: NIH Chemical Genomics Center [NCGC] NIH Molecular Libraries Probe Centers Network [MLPCN] MLPCN Grant: NS064831-01 Assay Submitter (PI): David Sibley Dopamine receptors (DARs) are involved in the etiology and/or therapy of a number of neuropsychiatric and endocrine disorders. For instance, all receptor-based antiparkinsonian drugs work via stimulating the D2 DAR subtype whereas all FDA-approved antipsychotic agents are antagonists of this receptor. […] There are three different types of allosteric modulators that we are seeking, two of which will stimulate or augment receptor signaling, allosteric agonists and potentiators, while the third, allosteric antagonists, will attenuate receptor signaling. The present primary screening assay measures compound antagonism after an EC80 addition of dopamine by tracking calcium flux in a […], inducible Hek293 Trex D2 cell line.
UniProt P14416, sequence (P14416 whole entry, looked up): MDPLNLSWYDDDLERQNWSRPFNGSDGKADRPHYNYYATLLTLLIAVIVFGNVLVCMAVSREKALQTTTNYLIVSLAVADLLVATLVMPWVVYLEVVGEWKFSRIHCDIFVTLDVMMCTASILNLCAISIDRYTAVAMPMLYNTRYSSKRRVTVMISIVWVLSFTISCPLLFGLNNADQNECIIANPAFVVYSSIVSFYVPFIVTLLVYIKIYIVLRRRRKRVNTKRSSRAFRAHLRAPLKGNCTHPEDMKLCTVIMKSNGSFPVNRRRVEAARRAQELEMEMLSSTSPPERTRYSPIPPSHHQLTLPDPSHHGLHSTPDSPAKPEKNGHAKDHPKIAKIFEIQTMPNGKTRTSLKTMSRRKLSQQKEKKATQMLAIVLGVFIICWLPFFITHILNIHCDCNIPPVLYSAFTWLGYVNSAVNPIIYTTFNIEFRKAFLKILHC
Freshly passaged cells are plated in 1536 well black, clear bottom plates at a density of 4000 cells/well in 3 ul of complete media containing 1x tetracycline inducer. After an overnight incubation at 30 C in 5% CO2, cells are loaded with 2 ul of the no wash Calcium Assay Kit (ABD Bioquest) and incubated at room temperature for 30 to 90 minutes. Agonist read: A 10 cycle (1 second/cycle) baseline measurement is taken and then the FDSS online 1536 pintool delivers 23 nl of compound library (as well as dopamine controls) to the plate. The plate is measured for kinetically at 1 cycle/sec for 180 seconds. Following the 180 second read, 1 ul of an EC80 (negative modulation assay) is delivered by an onboard pipette head. Measurements are taken kinetically for an additional 180 seconds.
With `CCOc1ccc(S(=O)(=O)NCc2ccc3c(c2)CCN3C(=O)c2ccc(C)cc2)cc1`, the inhibition was found to be 2.83%.
In the case of `O=C(COc1ccc(Cl)cc1)Nc1ccc2nc(SCC(=O)N3CCOCC3)sc2c1`, the inhibition is -13.8%.
For `COc1cccc(CNC(=O)C2CCN(Cc3cc4ccccc4n3Cc3ccccc3)CC2)c1OC`, the inhibition was -4.89%.
The figure for `Cc1ccc(Cl)cc1NC(=O)c1nnn(Cc2ccccc2)c1N` is -22.9%; for `Cc1ccc(NC(=O)CSc2nc3ccccc3nc2Cc2ccccc2)c(Cl)c1` it is -7.83%.
As for `Cc1ccc(C)c(NC(=O)c2cc(S(=O)(=O)N3CCN(c4cccc(Cl)c4)CC3)ccc2F)c1`, the figure is 13.1%; as for `CCN(Cc1ccccc1)C(=O)C1CCC(CNS(=O)(=O)c2ccc3c(c2)CCCC(=O)N3)CC1` (stereo not given), -0.601%; as for `CCc1ccc(Nc2nc3c(S(=O)(=O)c4ccc(C)cc4)nnn3c3ccsc23)cc1`, 10.9%.
As for `Cc1ccc(S(=O)(=O)c2nnn3c2nc(N2CCCC(C)C2)c2cc(Cl)ccc23)cc1C` (stereo not given), the inhibition is 9.52%.
Regarding `O=C(Nc1ccccc1C(F)(F)F)c1noc2c1CCCC2`, the inhibition is -1.77%.
On to `Cc1ccc(NC(=O)Cn2c(=O)n(-c3ccccc3)c(=O)c3ccc(C(=O)NCc4ccc5c(c4)OCO5)cc32)cc1`, for which the inhibition was -14%.
The figure for `CCN1CCC(N(Cc2ccc3c(c2)OCO3)C(=O)Nc2cccc(C)c2C)CC1` is -4.93%; for `Cc1ccc2nc(-c3cccc(NC(=O)CSc4ccc(Cl)cc4)c3)oc2c1` it is -1.28%; for `CC(=O)N1CCCc2cc(S(=O)(=O)NCc3ccccc3Cl)ccc21` it is 0.001%.
As for `CCOc1ccccc1NC(=O)Cn1c(=O)n(-c2ccc(C)c(C)c2)c(=O)c2oc3ccccc3c21`, the figure is 16.1%; as for `O=C(Oc1ccccc1F)c1nc(SCc2ccccc2F)ncc1Cl`, -9.82%; as for `COc1ccccc1NC(=O)Cn1nc2c3cc(F)ccc3n(Cc3cccc(C)c3)cc-2c1=O`, 4.56%.
In the case of `CCOC(=O)c1cc(C)n(CC2CCC(C(=O)Nc3ccc(OC)c(OC)c3)CC2)c1C` (stereo not given), the inhibition was -0.0337%.
As for `Cc1ccc2oc(C(=O)Nc3ccc(S(=O)(=O)N4CCCCCC4)cc3)cc(=O)c2c1`, the inhibition was 1.29%.
As for `NS(=O)(=O)c1cccc(NC(=O)COC(=O)C2(c3cccc(F)c3)CCCC2)c1`, the figure is active: 50.8%; as for `Cc1cc(C)cc(NS(=O)(=O)c2c(C)nc3scc(C)n3c2=O)c1`, -1.62%.
Take `CCc1ccc(NC(=O)c2sc(-n3nc(C)c(Cc4ccc5c(c4)OCO5)c3C)nc2C)cc1`: the inhibition was determined as 21.8%.
Consider `Cc1ccc(S(=O)(=O)c2nnn3c2nc(NC2CCCCC2)c2sccc23)cc1`, for which the inhibition was -3.77%.
As for `CN(C)S(=O)(=O)c1ccc2c(c1)nnn2CCNC(=O)Nc1ccc(Cl)cc1`, the figure is -4.59%; as for `Cc1ccc(Cc2cn3cc(-c4ccccc4)nc3s2)cc1`, 2.69%.
For `Cc1ccc(C)c(Oc2nc3c(c(=O)n(C)c(=O)n3C)n2Cc2ccccc2)c1`, the inhibition was -15.4%.
With `O=C(Oc1cccc2ccccc12)c1ccncc1`, the inhibition was active: 34%.
In the case of `Cc1cc(/C(N)=N/OC(=O)c2cccc(Cl)c2)no1`, the inhibition was active: 49.8%.
The figure for `Cc1ccc(Cn2c(=O)n(Cc3ccco3)c(=O)c3oc4ccccc4c32)cc1` is 2.55%; for `Cc1cc(C)c(OCCCCNCc2ccccc2)c(Cl)c1` it is active: 49%; for `Cc1ccc(C)c(NC(=O)CSc2nc3c([nH]c4ccccc43)c(=O)n2-c2ccc(F)cc2)c1` it is 9.3%.
The figure for `CCOc1ccc(OCC)c(NC(=O)c2cnc(SC)nc2-c2ccccc2)c1` is -23%; for `Clc1ccc(-c2ccc(CN3CCCCC3)o2)cc1` it is active: 78.2%; for `COc1ccc(CC(=O)NCC(c2ccc(Cl)cc2)N2CCOCC2)cc1` (stereo not given) it is -9.34%.
As to `Cc1ccc(C)c(Cn2c(=O)n(-c3ccc(Cl)cc3)c(=O)c3c(C)c(C)sc32)c1`, the inhibition is 4.62%.
Turning to `CCOC(=O)CNC(c1ccccc1)c1cc(Br)ccc1NC(=O)c1cccc(Cl)c1` (stereo not given), the inhibition was -9.46%.
The figure for `Cc1ccc(Cl)cc1N1CCN(C(=O)c2cc(S(=O)(=O)N3CCCC3)c[nH]2)CC1` is 11.1%.
The figure for `CC(=O)N1CCCc2cc(S(=O)(=O)N3CCC(C(=O)NCc4ccccc4)CC3)ccc21` is 16.2%.
As for `CCN1C(=O)c2ccccc2S(=O)c2ccc(C(=O)N3CCCCCC3)cc21` (stereo not given), the figure is active: 32.3%; as for `CCc1nnc(SCC(=O)N(CC)c2ccccc2)c2cc3oc(C)cc3n12`, 8.68%; as for `CCN(Cc1ccccc1)C(=O)Cn1c(=O)n(-c2ccc(Cl)cc2)c(=O)c2c(C)c(C)sc21`, -4.42%.
In the case of `Cc1ccc(CN2CCSc3ccc(C(=O)Nc4ccc(C)cc4)cc32)cc1`, the inhibition was -11.8%.
Turning to `CCCCNC(=O)c1ccccc1NC(=O)CN(c1ccccc1)S(=O)(=O)N(C)C`, the inhibition was found to be 3.17%.
With `O=C(Nc1ccc(NC(=O)c2ccc([N+](=O)[O-])o2)cc1Cl)c1ccco1`, the inhibition was active: 39.8%.
For `Cc1ccc2c(=O)cc(C(=O)Nc3ccc(S(=O)(=O)N4CCCCCC4)cc3)oc2c1`, the inhibition amounted to 8.88%.
As for `O=C(CSc1nc(=O)n(Cc2ccco2)c2c1CCC2)Nc1ccccc1C(F)(F)F`, the figure is 23.6%; as for `CC(C)c1ccc(NC(=O)CSC2=Nc3ccccc3C3=NC(CCC(=O)NCc4ccco4)C(=O)N23)cc1` (stereo not given), 14.8%; as for `Cc1ccc(NC2=C(Cl)C(=O)OC2NC(=O)c2ccccc2)cc1` (stereo not given), active: 54.9%.
As to `Cc1ccc(S(=O)(=O)N(C)C)cc1NC(=O)Nc1ccccc1`, the inhibition is active: 84.4%.
As for `Cc1cccc(S(=O)(=O)c2cn(C)c3cc(N4CCN(c5ccc(F)cc5)CC4)c(F)cc3c2=O)c1`, the figure is -1.57%.
Regarding `COc1ccc(OC)c(CCNC(=O)CCn2c(=O)c3cccn3c3ccc(F)cc32)c1`, the inhibition was 2.75%.
On to `CCOc1cc(C)nc(N2CCN(C3CCCCC3)CC2)n1`, for which the inhibition is active: 40.1%.
With `COc1ccc(C)cc1NC(=O)COCc1cc(-c2ccc(F)cc2)on1`, the inhibition is 5.87%.
The figure for `CC(C)(C)C(=O)OCc1cc(=O)n2nc(C3CC3)sc2n1` is 7.91%.
As to `Cc1ccc(N2CCN(S(=O)(=O)c3c(C)[nH]c(=O)[nH]c3=O)CC2C)cc1` (stereo not given), the inhibition worked out at 13.1%.
Regarding `CCCN(CCC)c1nn2c(=O)c(C(=O)NCc3cc(Br)ccc3OC)cnc2s1`, the inhibition was -7.28%.
Take `CCOC(=O)c1cc(-c2ccccc2)n(CC(=O)Nc2ccc(CC)cc2)c1C`: the inhibition worked out at 1.75%.
The figure for `O=C(CSc1nc2c(oc3ccccc32)c(=O)n1Cc1ccco1)Nc1ccccc1` is -2.1%; for `Cc1ccc(CN2CCCN(Cc3c(C)cc(C)cc3C)S2(=O)=O)cc1` it is -7.35%; for `CCCSC1=NC2(CCN(C(=O)NC3CCCCC3)CC2)N=C1c1ccc(Cl)cc1` it is 7.64%.
The figure for `O=C(COc1ccccc1F)Nc1c(C(=O)Nc2cccc(F)c2)oc2ccccc12` is -22.1%; for `Cc1ccc(C(=O)Nc2nc3nc(-c4ccccc4)cc(=O)n3[nH]2)cc1` it is -14.1%; for `O=C(NCCCN1CCN(c2ccccc2F)CC1)Nc1ccccc1[N+](=O)[O-]` it is active: 99%.
As to `O=C(Nc1cc(-c2ccccc2F)nn1-c1ccccc1)c1ccccc1Br`, the inhibition was 7.67%.
As to `CCCCCOC(=O)CSc1nc2sc3c(c2c(=O)n1-c1ccccc1)CC(C)(CC)OC3` (stereo not given), the inhibition is -1.52%.
As for `COc1ccc(Cn2ccn(Cc3cccc(Cl)c3)c(=O)c2=O)cc1`, the figure is 2.17%.
As for `Cc1ccc(S(=O)(=O)Cc2nc(-c3ccc(C(=O)NCc4ccccc4C)cc3)oc2C)cc1`, the figure is 9.54%; as for `CCOc1cc(C(=O)Nc2ccc3c(c2)OCO3)ccc1OCCOc1ccccc1Cl`, active: 31.8%; as for `CCOc1ccc(-c2nonc2NC(=O)c2oc3ccc(C)cc3c2C)cc1OCC`, -26%.
As for `O=C(CCCCl)N1CCc2[nH]c3ccccc3c2C1`, the figure is active: 31.8%.
As for `Cc1ccc(CN2CCC(c3cc(-c4cccs4)n[nH]3)CC2)cc1`, the inhibition is active: 69.9%.
As for `CCCN1CCC2(CC1)C(C#N)=C(N)Oc1c2sc2nc(C)cc(C)c12`, the inhibition is active: 95.9%.
`CCCn1cc(S(=O)(=O)c2ccc(OC)cc2)c(=O)c2cc(F)c(N3CCCC(C)C3)cc21` (stereo not given): the inhibition came out at 5.16%.
On to `CC(=O)c1ccc(NC(=O)C2=CC(c3ccc(C)cc3)=NS(=O)(=O)N2C)cc1`, for which the inhibition is -2%.
For `COc1ccc(-c2cc(C)no2)cc1S(=O)(=O)NCc1ccco1`, the inhibition worked out at 28.3%.
The figure for `CCN(CC)S(=O)(=O)c1ccc2c(c1)c(=O)c(C(=O)NCc1ccccc1Cl)cn2C` is 18.6%.
As for `COc1ccc(S(=O)(=O)N2CCN(C3CCCCCCC3)CC2)cc1`, the figure is active: 34.3%.
Regarding `CCOC(=O)c1c(-c2ccc(C)cc2)csc1NC(=O)c1cc(=O)c2cc(C)cc(C)c2o1`, the inhibition was 17.1%.
The figure for `COc1ccc(-n2c(SCc3ccccc3F)nc3c([nH]c4ccccc43)c2=O)cc1OC` is 4.48%.
As for `O=C(CSc1c2c(nc3cc(Cl)ccc13)CCCC2)N1CCN(c2ccccc2)CC1`, the figure is -14.6%.
Turning to `CC1CCN(C(=O)Cn2cc(SCC(=O)Nc3ccccc3)c3ccccc32)CC1`, the inhibition is -0.633%.
The figure for `COc1cccc(-c2nc(SCC(=O)NCc3ccco3)c3c(=O)n(C)c(=O)n(C)c3n2)c1` is 4.53%; for `CCOC(=O)c1noc2ncnc(N3CCN(c4cccc(C(F)(F)F)c4)CC3)c12` it is 7.76%.
For `COc1ccc(Cn2c(=O)n(-c3ccc(OC)cc3)c(=O)c3c2c2cc(OC)ccc2n3C)cc1`, the inhibition turned out to be 4.23%.
The figure for `O=C(NCc1ccc(Cl)cc1)C1CCN(c2ncnc3c2nc2n3CCCCC2)CC1` is -14.2%; for `CCOc1ccccc1C(=O)NCC(c1cccs1)S(=O)(=O)c1ccc(F)c(C)c1` (stereo not given) it is -11.5%; for `CCc1ccc(NC(=O)CSc2nc3c(c(=O)[nH]2)CN(Cc2ccc(C)cc2)CC3)cc1` it is 4.52%.
In the case of `COCc1cc(C)nc2c1C(=O)NC(c1ccc(Br)cc1)N2Cc1ccccc1` (stereo not given), the inhibition came out at 3.35%.
Regarding `COc1cc(Cl)c(C)cc1NC(=O)Cn1c2ncccc2c(=O)n1-c1ccccc1`, the inhibition worked out at 5.59%.
The figure for `CCc1ccc(-n2nnc(-c3nc(-c4ccc(C)cc4)no3)c2N)cc1` is 9.13%; for `CC(C)CN1CCC(=O)N([C@H](CSc2ccc(Br)cc2)Cc2ccccc2)CC1` it is active: 35.6%; for `COc1ccc(Cl)cc1C(=O)NCc1nnnn1-c1ccccc1` it is -12%.
Turning to `CCc1ccc(NC(=O)C(=O)NCC(c2cccnc2)N2CCc3ccccc3C2)cc1` (stereo not given), the inhibition was -18.8%.
The figure for `Cc1cccc(C)c1NC(=S)N/N=C/c1ccc(C(=O)O)cc1` is active: 36.2%; for `COc1nnc(-c2ccc(N3CCCCC3)c(NC(=O)c3ccccc3Cl)c2)c2ccccc12` it is 3.13%.
